In the RNAGym collection of RNA variant scans (doi:10.7554/elife.90254):
The source gives no read counts; variants with many changes may rest on few reads.

B1: OR4K15 (parent)
chain: GUUAACGGUCAUAGGCCAUGGAAACUAGGAGCACCAUUUCGCUGCCAGUGAAGAAAUGAACAAAGAAAAUCUGGGCCAGGCAGGCAUCAAAAGAAAUAGUCUUGCGCUCAACCAGAAAGUCUGUAAUCAUUUUAAGGGUA

Variants of: B1
Experiment: self-cleavage, relative activity (ratio to wild type); higher = more cleavage; in vitro, sequencing; the parent is a self-cleaving ribozyme

Variant	self-cleavage
A5G U38G A55G A98G	0.37
A5G A24G G83A	0.84
A5G A23U U26C A98G A118G U124A	0.15
A5G A56G A60G C76U A78G U122C	0.14
A5G A36U U49C A54G A68G U100C	1.13
A5G A60G U103A	0.32
A5G G14A U127C	1.23
A5G A13U A24G G28A A47C A68G A126G	0.54
A4G U43C A52U A59G	1.6
A5G A78G A94G	0.41
A5U U37C A117G U120C	1.4
A4G U39C A69G A117G U120A	1.99
A4G U9C A69G A129G	0.25
A5U A54U U108C	0.06
A5C U9A U37C G104A	0.03
A5G A47G A78G U102C	0.4
A5G U12C A64G	1.02
A5G A13G A63U A90G C113A	0.06
A5U A13C A22G A56G U102A	0.82
A5G A51U A94G	1.31
A5G U19C A129G U131C	1.24
A5G A90G A116U	0.01
A5G U38C G74U	0.33
A4U C42A A110G	0.13

Variant	self-cleavage
A5U A56G A92G A116G U120C A129G	0.18
A5G C77A A95G	0.88
A5G G7A A59G A68G	1.41
A5G U38G A89U	1.49
A5G A23G U70C U108C	0.05
A4G U38A U43C U72G	0.3
A5U U9C A82U A94G A96G	0.34
A4G U9A A52G	0.79
A5U A18G A36U A54G A59G	1.06
A4G U72A A116G	0.09
A5G A89G A92G U122C	0.68
A4G U9C A56G A94G	1.48
A5G G7U A47U A125G	0.11
A5G U39C A94G A95G	1.45
A5G A24G A68G A116G A135G	0.91
A5G A78U A96G A125G	0.09
A5U G20U A24G A36G A62G G73U	0.28
A5G A33G A68G	0.94
A4G U19C U38C	1.16
A5G U43C C46U U49G A64G A116G	0.53
A5G U108C U132C	0.05
A5G A33C A51G A129G	1.13
A5G A18U C42A A94G	0.91
A4G U70A U130C	0.5

Variant	self-cleavage
A5C G48A A78U	0.62
A5G G50A U57C	0.49
A4G U70C A89G A92U U102C U108C	0.02
A5G A67U A125U	1.41
A5G A125U G138A	1.47
A5G A62G G123A	0.95
A5C A33U U122A	1.58
A4G U9C A51U U122C	0.47
A5G A22G A67G U100C	1.63
A5G G53A A55G A62U A63G	0.3
A5G C25A U39A	0.94
A5G A90G U108C	0.09
A5G A33G A63G A78U A114U A118G A140G	0
A5G U39A A67G	1.58
A5G A68G U139C	1.6
A5G A30G A36U A68G G75C C88U U100C C105A	0
A5U A55G A78U U103A	0.13
A5G U57A U102C A114U	0.19
A5G A11G U19C A51G	0.57
A5U U9A A89G A90G U108C	0.06
A5G A69G A92G	0.73
A5U A13U A68G A69G A90G U108A	0.08
A5G A33G G104A	0.13
A5U A11G A54U U102A	0.7

Variant	self-cleavage
A5G A22U C61A A129G	1.15
A5G A51G A86G A89G	0.51
A4G U87C U103C A111G U132C	0.02
A4G U12C A54G A125G	0.35
A5U A18G U38C U72A U100C	1.07
A5U A23U A56G A118G	0.29
A5G A33G A118U U120C	0.23
A5G A47G A66G U103A	0.44
A5U A13G A114G	0.24
A5U A54G A67G G74C U130C	0.28
A5G A24C A67G A82G A91G A92G A135G	0.28
A5G A54C U108A A110C	0.02
A5G A11G A23C U39C G50A A67G	0.88
A5G A62G C107U U108C	0.15
A5U A47G U57G C85G	0.46
A5G A51G A64U	0.5
A5G U38A A94G U97A U130C	0.7
A5U C10A A24G	1.83
A5G A11U A24G A126G	0.87
A5G A89G A118G U131C	0.79
A4G U9C A23G	0.98
A5U A23G A90U	1.29
A4U A96U A98G U131C	2.14
A5G A23U U43C A89G	1.06

Variant	self-cleavage
A4G U72A A95U A96G	0.4
A5U G15A U37C A51G A129G A135G	0.49
A5U U12G A52G A95U A111G	0.13
A5G A22G A92G	2.42
A5C A30C U38C A91G A92G	1.02
A5G A33G U103A	0.22
A5G A27G A90G A111G	0.08
A5G A66G A78G A129U	0.19
A4U C77U A96G	1.21
A5G A82G A89G A92U A96G	0.6
A5U A22G U130C	0.68
A5G U43A A55G	0.79
A5G U9C A11G U38C A118G	1.07
A5G A24G A52U U87C	1.05
A5G A54G G80U	0.13
A5G A55G A59U U100C U108A A140G	0.05
A5G C17U A30G A69G G138A	0.6
A5G A56G U127C	1.25
A5G C34U U39A U57C G83A A129G	0.96
A5G U57C A60G	0.48
A5G U39C A47G A54G	1.27
A5G A23G G41U A47U U120C	0.34
A5G G20A U43C U57C	0.8
A5G A62U A86G U103C U120A	0.76

Variant	self-cleavage
A5C U12C A140C	1.49
A5G A18G A24G A62G U132A	1.35
A5G U97C A111G U122C	0.04
A5G U39C U97C	1.15
A5G U57C A63U	1.92
A5G C25U U38A A60G	0.71
A5G A68G U87C	0.95
A5G A90G A111G	0.1
A5G A82U U87C	0.13
A5G A111G U122G	0.04
A4G U122C U132C	0.66
A4G U9C A33G U103C	0.83
A5G A66G A90G	0.19
A5U U19A U49A	0.64
A5G A36U A98G U124A	0.17
A5G U87C A95G A117G	1.79
A4G U43A A140G	1.59
A5G A92G A98C	1.37
A5G U19A A36G C105U	0.39
A5G A30G C46U A51G	0.96
A5G A18U G29U A55G	1.04
A5G A55G C112A	0
A5G A11G A62G	1.93
A5G A23U U43C A140G	1.36

Variant	self-cleavage
A5G A30G A64G A67G	1.07
A5G U49C A52G	0.47
A4G U19G A86U A96G U127G	1.71
A5G C46A A54G U103A A126U	0.52
A5G U37C A82C A116G	0.04
A4G U19C U38C A51G	0.98
A5G U87C U122C	0.58
A5G U43C U132C	1.62
A5G A129G U132C	0.65
A5G U87C A92C U139A	1.36
A5G G75A A86G A91G A117C	0.07
A5G U19C A33U U37C	1.13
A5G U72C A82U	0.37
A5G U38C U70C	0.75
A5U A24G U38A A63G A69U U108C	0.12
A5G A18G A51U A96U	0.29
A5C A62G C76A A95C A114G	0.07
A5G U37A A94U A111G	0.2
A5G A54G U57C A126G U127C	0.3
A5G A27U A69U A89G A110G A117G	0.08
A5G A22G U37C A59G A118G	0.1
A5G C42U A59G A62G A90U U124G A135G	1.41
A5G U43C A125G	0.37
